In all, about 33,000 sequences were measured (“E-score (-0.5 to 0.5)”: median about -0.035, highest 2% from about 0.35 on). The list shows a part of the results.
Target: T1, Pdr3 (UniProt P33200)
T1 sequence: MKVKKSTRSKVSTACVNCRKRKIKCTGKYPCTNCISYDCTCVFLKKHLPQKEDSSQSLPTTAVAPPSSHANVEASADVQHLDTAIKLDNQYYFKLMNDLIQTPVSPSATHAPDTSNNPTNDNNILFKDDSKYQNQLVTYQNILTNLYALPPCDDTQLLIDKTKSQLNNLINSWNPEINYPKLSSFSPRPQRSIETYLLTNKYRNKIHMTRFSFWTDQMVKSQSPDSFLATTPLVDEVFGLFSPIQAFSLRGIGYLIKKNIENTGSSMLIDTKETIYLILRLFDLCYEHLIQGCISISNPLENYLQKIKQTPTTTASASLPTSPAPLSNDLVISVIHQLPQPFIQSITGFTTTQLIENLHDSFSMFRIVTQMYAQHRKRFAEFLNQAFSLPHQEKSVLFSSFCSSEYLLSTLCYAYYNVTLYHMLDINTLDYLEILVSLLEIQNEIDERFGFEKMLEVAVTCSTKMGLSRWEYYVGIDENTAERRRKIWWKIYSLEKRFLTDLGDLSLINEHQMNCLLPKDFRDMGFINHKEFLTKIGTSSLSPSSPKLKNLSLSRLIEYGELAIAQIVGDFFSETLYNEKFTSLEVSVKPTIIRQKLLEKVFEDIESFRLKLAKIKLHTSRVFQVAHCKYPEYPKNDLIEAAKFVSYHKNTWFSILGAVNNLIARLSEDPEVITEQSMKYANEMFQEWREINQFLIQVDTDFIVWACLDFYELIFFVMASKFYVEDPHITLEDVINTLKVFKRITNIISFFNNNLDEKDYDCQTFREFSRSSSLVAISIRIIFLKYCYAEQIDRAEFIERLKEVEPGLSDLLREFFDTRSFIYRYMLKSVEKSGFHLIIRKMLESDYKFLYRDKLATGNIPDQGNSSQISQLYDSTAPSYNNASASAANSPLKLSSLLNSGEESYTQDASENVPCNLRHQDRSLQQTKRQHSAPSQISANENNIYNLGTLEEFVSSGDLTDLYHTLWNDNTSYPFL
Experiment: PBM E-score (8-mer binding enrichment) (E-score (-0.5 to 0.5)); higher = stronger / more preferred TF binding; most listed sequences are background and not binding sites
Conditions: protein concentration: 200 nM; construct: GST-full length
Method in brief: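 Detection of bound protein used fluorescent anti-GST, with scans normalised by masliner. The proteins were GST-tagged yeast transcription factors applied at about 100-200 nM to universal all-10-mer Agilent arrays made double-stranded by primer extension. Each ungapped eight-base word, pooled with its reverse complement, was scored with an E-score from the Universal PBM Analysis Suite.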

| Sequence | PBM E-score |
| --- | --- |
| AAGAAAGG | -0.194 |
| AGCTTCAG | -0.177 |
| AGAAAATG | -0.0679 |
| ACAGGGAT | -0.107 |
| ATCGAAGC | -0.0438 |
| ACCTACGA | -0.187 |
| CCAGTCGC | -0.0148 |
| AGTGCCGC | 0.18 |
| CAGGCCTA | -0.0696 |
| CCTCAGAA | -0.326 |
| CACTGATA | -0.275 |
| AGAGTTCG | -0.00345 |
| GTGACGTA | -0.0979 |
| AGTTCCAG | -0.0101 |
| CGTAAGGA | -0.267 |
| ATCGATGA | 0.00783 |
| CCTCTCCC | -0.0732 |
| CGGTAACG | 0.123 |
| GGCGAGCC | 0.125 |
| CGGCCTAA | 0.0622 |
| CTAGCGAA | -0.246 |
| AGATGAAA | 0.00513 |

| Sequence | PBM E-score |
| --- | --- |
| CATCGATC | 0.00807 |
| CAGACGCA | 0.0386 |
| GATGGGAA | -0.0825 |
| CGCCCCGA | 0.273 |
| AGGTTAAG | -0.299 |
| CCCCAACA | -0.274 |
| CCTGAAGG | -0.183 |
| GCACAAAC | -0.00413 |
| CAAGTCAA | -0.168 |
| ACAGTCCA | -0.158 |
| TAATGCTA | 0.0108 |
| GGTTCCTA | 0.00217 |
| ACAAGAGG | -0.0926 |
| GATGGGCA | -0.0933 |
| ATCTCCAG | -0.1 |
| CGCTTCCC | 0.0936 |
| AAAATCTG | 0.0512 |
| TAGTAGCA | -0.0498 |
| AAAGCACC | -0.125 |
| ATCTGTGA | 0.0204 |
| CGTATGAG | -0.0564 |
| CAACCATG | 0.0916 |

| Sequence | PBM E-score |
| --- | --- |
| AGCTTGAG | -0.147 |
| GTGGCTCA | -0.125 |
| ATTTTCTC | 0.00817 |
| AGTAGCCA | -0.348 |
| AGATTCGA | -0.0157 |
| AAAGACCT | -0.0672 |
| GATTGATA | -0.0756 |
| CATGCTGC | -0.174 |
| CTGATAGA | -0.118 |
| CTCATGCA | -0.171 |
| TTATTAAA | -0.0231 |
| GGCATGCC | 0.324 |
| CTTGTGAA | -0.105 |
| AACGTCAA | -0.146 |
| AATATGGT | 0.183 |
| ATAGGACC | -0.125 |
| AAACGCCA | 0.124 |
| CGTAGTCC | -0.119 |
| AAGGTGCA | -0.0384 |
| CCCTTATA | -0.0578 |
| AAGGAAAG | -0.0481 |
| CTCAAGTC | -0.237 |

| Sequence | PBM E-score |
| --- | --- |
| AACGGGGC | 0.0961 |
| GGCTCACC | -0.156 |
| TGCAACAA | -0.162 |
| GTATTAGA | 0.0559 |
| GCGGAGCC | 0.296 |
| TCAAACCA | 0.165 |
| CACTCTAC | -0.0177 |
| ACCAGCAG | -0.264 |
| CGGTGGTC | 0.18 |
| ACATTCAT | 0.0569 |
| AGCCAGGA | -0.151 |
| ATCGGGCA | 0.0375 |
| CTCTATCC | -0.0282 |
| CTTGCTCC | -0.00184 |
| GTCGACTA | 0.0751 |
| GGTTCTAC | -0.112 |
| AATTCAAG | -0.13 |
| ACTTGGGA | -0.118 |
| GCTCAAAA | -0.0599 |
| ATAAGATG | -0.0842 |

From the supplement of paper PMC3334620
